Source: PubChem BioAssay AID1745853 (National Center for Advancing Translational Sciences (NCATS), 2022)
This is one part of the list. Further columns of the screen follow, without active or inactive calls.

Tests used:
Test in all cases: Primary Screen for Target Class Profiling of Small Molecule Inhibitors of Methyltransferases
[1] = molecular target: Glycine N-methyltransferase (Homo sapiens) (UniProt Q14749); conditions: purified enzyme, MTase-Glo SAH luminescence; measured here: GNMT inhibition; at 40 µM; stronger effect = lower value
Outline: (§1)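 Each enzyme was reacted with SAM and its substrate, with compounds tested once at 40 uM; SAH formed was read by MTase-Glo luminescence.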

[2] = molecular target: Guanidinoacetate N-methyltransferase (Homo sapiens) (UniProt Q14353); conditions: purified enzyme, MTase-Glo SAH luminescence; measured here: GAMT inhibition; at 40 µM; stronger effect = lower value
Outline: as §1

[3] = molecular target: Histamine N-methyltransferase (Homo sapiens) (UniProt P50135); conditions: purified enzyme, MTase-Glo SAH luminescence; measured here: HNMT inhibition; at 40 µM; stronger effect = lower value
Outline: as §1

[4] = molecular target: Nicotinamide N-methyltransferase (Homo sapiens) (UniProt P40261); conditions: purified enzyme, MTase-Glo SAH luminescence; measured here: NNMT inhibition; at 40 µM; stronger effect = lower value
Outline: as §1

[5] = molecular target: Phenylethanolamine N-methyltransferase (Homo sapiens) (UniProt P11086); conditions: purified enzyme, MTase-Glo SAH luminescence; measured here: PNMT inhibition; at 40 µM; stronger effect = lower value
Outline: as §1
% is set by controls: 0 for no effect and ±100 for the full control effect.

SMILES	activity change, negative = inhibition [1] [%]	activity change, negative = inhibition [2] [%]	activity change, negative = inhibition [3] [%]	activity change, negative = inhibition [4] [%]	activity change, negative = inhibition [5] [%]
C=C1C(=O)O[C@@H]2C[C@@]3(C)C[C@@H](O)C[C@H](C)C3=C[C@H]12	2.4	6.15	9.38	-5.55	1.05
CC1(C(=O)NC2CCCCCC2)Cn2c(nc3ccccc32)C(=O)N1CCCc1ccccc1 (stereo not given)	2.03	6.78	7.07	4.66	-0.516
CCOC(=O)C(C)Oc1ccc2c(-c3ccccc3)cc(=O)oc2c1C (stereo not given)	-11.6	3.23	-3.23	-13.5	-15.7
O=[S+]([O-])(c1ccccc1)N1CCCC2(CC(c3cccc(C(F)(F)F)c3)=NO2)C1 (stereo not given)	-8.56	-4.55	-2.58	-12.2	-6.06
Cc1nc2ccc(CN(C)c3ccc(C(=O)NC(CCC(=O)O)C(=O)O)s3)cc2c(=O)[nH]1 (stereo not given)	1.64	–	11	–	–
CN1CCN(Cc2nnc(C3CCN(C(=O)C4(N)CC4)CC3)n2C)CC1	-1.42	-0.405	-9.13	-0.372	-2.37
c1cc(N[C@@H]2CCNC2)nc(-c2cnc3ccc(-c4cn[nH]c4)cn23)c1	-33.2	-23	-53.5	-40	-13.6
COc1ccc2cc3n(c2c1)CC(C)(C(=O)NC1CCCCC1)N(C1CCCC(C)C1C)C3=O (stereo not given)	0.279	0	0.055	-5.5	-5.78
CC(C)N1C[C@H](O)C[C@H]1c1nnc2n1CCN(C(=O)CCc1c[nH]c3ccccc13)CC2	-1.61	2.05	3.91	-1.79	15.2
Cn1c(=O)n(C)c2cc(S(=O)(=O)N3CCc4ccccc4C3)ccc21	18.1	3.94	9.5	6.78	3.32
CCOCCCN1C(=O)c2c(NC(C)=O)c3cc(F)ccc3n2CC1(C)C(=O)NC1CCCC1 (stereo not given)	-0.332	3.58	0.941	-0.941	-1.5
OC1(c2ccc(Cl)cc2)CCN(Cc2c[nH]c3ccccc23)CC1	3.98	8.82	-2.9	-13.4	2.74
O=C(c1cccnc1)N1CCC12Cc1ccccc1NC2=O (stereo not given)	-7.41	-6.58	-2.81	-14.2	9.41
CCC(=O)N1CCCCCCNC(=O)[C@@H]2C[C@@H](C(=O)N3CCN(c4ccccn4)CC3)C[C@@H]21	-3.02	-6.97	-2.23	-8.39	-2.1
O=c1cc(-c2cccnc2)oc2c(-c3cn[nH]c3)nccc12	-9.26	-9.39	-4.65	-11.2	-12.5
O=C(C1CCCCC1)N(CCN1CCN(c2ccccc2O)CC1)c1ccccn1	2.12	-2.92	-6.33	-16.1	-8.15
CC1(C(=O)NC2CCCCCC2)Cn2c(cc3occc32)C(=O)N1Cc1cccc(F)c1 (stereo not given)	-4.9	1.99	-6.32	-8.79	-6.26
CC(C)n1cc(-c2ccc(Oc3ccccc3)cc2)c2c(N)ncnc21	–	-12.8	–	-48.2	-58.4
COc1cc(C)c(-c2nc(CN3CCCC(CN)C3)c(C)o2)cc1C (stereo not given)	2.4	0.307	-13.2	-4.18	-15.2
NC(=Nc1ccccc1)NC(=O)c1nc(Cl)c(N)nc1N	-12.7	14.6	0.592	-2.86	8.65
Clc1ccc(-c2cnc3ccccc3n2)cc1	-0.689	4.91	4.18	8.31	-1.78

SMILES	activity change, negative = inhibition [1] [%]	activity change, negative = inhibition [2] [%]	activity change, negative = inhibition [3] [%]	activity change, negative = inhibition [4] [%]	activity change, negative = inhibition [5] [%]
CC1(C(=O)N2CCOCC2)CN(Cc2ccccc2)Cc2ccc(Nc3ccccc3)nc21 (stereo not given)	-7.34	-7.41	-6.79	-14.9	-14.7
CCC(C)NC(=O)c1ccc2c(=O)n(C)c3nn(CC(=O)c4cc(C)ccc4C)c(=O)n3c2c1 (stereo not given)	8.69	2.83	11	1.02	7.23
Cc1ccc(NC(=O)N2Cc3c(sc4c3CCCC4)-n3cccc3C2c2cccc(F)c2)cc1F (stereo not given)	0.122	0	8.01	-0.313	-3.26
Cc1oc(C(C)C)cc1C(=O)N1CC[C@](C)(O)[C@@H](O)C1	-6.3	-9.59	-3.9	-14.6	-10.7
CCC(C)NC(=O)c1ccc2c(=O)n(C)c3nnc(SCC(=O)c4ccc(C)cc4C)n3c2c1 (stereo not given)	5.5	0.557	8.29	5.96	6.36
Cn1cnc(CN2CCNc3cc(Nc4ccccc4)ncc3C2)c1	-14.8	-3.61	-84.4	-16.3	-18.4
CC(=O)Nc1ccc(CN2CCC[C@H]2c2nc(-c3ccc(N4CCC(C(N)=O)CC4)nc3)no2)cc1	-3.47	-9.46	-5.06	-10.9	-3.64
CC(C)N1C(=O)C2(CCCC2)C1C(=O)N1CCc2ccccc21 (stereo not given)	-1.42	-3.77	-1.63	-7.23	-0.741
CC1(C(=O)NCc2ccccc2)Cn2c(cc3ccccc32)C(=O)N1C1CC1 (stereo not given)	-6.52	0.565	-2.6	-4.22	-4.16
COc1cc(O)cc(OC2OC(CO)C(O)C(O)C2O)c1 (stereo not given)	2.44	3.82	9.38	-8.13	-1.23
CCC1c2ccc(C)n2CCN1C(=O)Nc1cccc(C)c1 (stereo not given)	3.72	0.997	0.076	0.825	1.08
COc1ccccc1CNC(=O)C1(C)Cn2c(cc3ccccc32)C(=O)N1Cc1ccccc1C (stereo not given)	2.88	4.06	3.91	-0.265	1.47
CCc1ccc(CNC(=O)CCCn2ccc3cc(S(=O)(=O)N4CCCC4)ccc32)cc1	2.31	6.85	3.91	-4.49	1.07
Cc1cnc(C(=O)N2CC[C@H](CO)[C@H](NC(=O)C3CC3)C2)cn1	1.03	2.67	0.08	-5.78	15.5
Cc1ccc(Cn2c(=O)c3ccccc3n3c(=O)n(CC(=O)Nc4cc(Cl)ccc4C)nc23)cc1	4.3	5.49	3.02	4.48	3.93
O=C(NCc1ccc(OC(F)(F)F)cc1)c1cc(CN2CCOCC2)on1	-1	-0.278	0.387	-8.64	-2.02
CC(=O)N1CCN(C(=O)C[C@@H]2C[C@@H](C(C)C)[C@H](CNC(=O)c3cncnc3)C=C2C)CC1	-5.99	-5.49	-2.97	-8.42	-2.46
CC(C)C1c2cccn2CCN1C(=O)Nc1cccc(F)c1 (stereo not given)	12.4	1.63	2.19	-1.87	7.59
c1cncc(-c2ccnc(NCC(c3cccnc3)N3CCCCC3)n2)c1 (stereo not given)	-9.59	-4.2	-1.63	-7.15	0.373
CCCCN1C(=O)c2cc(C(=O)NCc3ccc(CC)cc3)nn2CC1(C)C(=O)NC1CCCC1 (stereo not given)	-0.073	-0.591	0.091	-5.16	-3.58
CC(C)CCNC(=O)CCc1nnc2n(CCc3ccccc3)c(=O)c3ccccc3n12	-6	3.58	4.2	5.67	-4.08

SMILES	activity change, negative = inhibition [1] [%]	activity change, negative = inhibition [2] [%]	activity change, negative = inhibition [3] [%]	activity change, negative = inhibition [4] [%]	activity change, negative = inhibition [5] [%]
Cc1oc2c(c1C(=O)N1CCN(C3CCCC3)CC1)CN(Cc1cccc(F)c1)CC2	-6.45	-5.97	-8.43	-13.6	-19.8
C[C@]12CCC[C@](C)(C(=O)O)C1CCC13C=C(CO)C(CCC12)C3 (stereo not given in full)	0	1.81	5.02	-11	4.59
CS(=O)(=O)N1CC2(CCN(C3COC3)C2)Cc2ccccc21 (stereo not given)	-9.51	-3.31	-3.12	-4.87	-1.38
COc1c(C)c(OCC(O)C(C)(C)O)cc2c1CNC2=O (stereo not given)	-2.7	-13.4	4.17	-24.9	-4.12
CC1(C)CC[C@]2(C(=O)O)CC[C@]3(C)C(=CCC4[C@@]5(C)C[C@H](O)[C@H](O[C@@H]6OC[C@H](O)[C@H](O)[C@H]6O)[C@@](C)(CO)C5CC[C@]43C)[C@@H]2C1 (stereo not given in full)	0	1.96	0.825	-9.83	7.3
Cc1ccc(-c2cn3c(n2)N(C(=O)C2CCCO2)CCC3)cc1 (stereo not given)	-1.34	-0.619	-9.67	-10.1	10.5
CC1(C(=O)NC2CCCCCCC2)Cc2ccccc2C(=O)N1Cc1ccco1 (stereo not given)	-4.47	0	12.8	0.761	4.27
COc1ccc2c3ccnc4ccc(=O)n(c2c1)c43	-38.6	-8.66	-1.35	-24.7	-5.23
COc1ccccc1NC(=O)N1CCn2cccc2C1C (stereo not given)	-5.5	3.94	-7.01	-12.9	-4.29
CC1=C(C(=O)O)/C(=C\CO[C@@H]2O[C@H](CO)[C@@H](O)[C@H](O)[C@H]2O)C(OC(=O)/C=C/c2ccc(O)cc2)C1 (stereo not given in full)	-4.4	-6.39	-1.09	-15.7	1.86
CN1CCN(CCCNC(=O)Cn2ccc3cc(S(=O)(=O)N4CCCCC4)ccc32)CC1	2.9	0	-11.8	2.25	-0.742
COc1cc(/C=C/C(=O)OC[C@H]2O[C@H](O[C@]3(CO)O[C@H](CO)[C@@H](O)[C@@H]3O)[C@H](O)[C@@H](O)[C@@H]2O)cc(OC)c1O	-2.59	-2.65	2.93	-13.2	-9.75
CC1(C)C(=O)C(C)(C)c2cc(C(=O)Nc3ccc(C(=O)O)cc3)ccc21	-4.2	4.9	13.9	-9.71	5.29
Cn1c(=O)n(C)c2cc(S(=O)(=O)Nc3ccc(N4CCOCC4)cc3)c(Cl)cc21	-1.84	0	-11	-3.57	-9.81
CCn1c(-c2nonc2N)nc2c(C#CC(C)(C)O)ncc(OCC3CCCNC3)c21 (stereo not given)	-1.34	14.9	-36.1	-66.5	5.42
CCOCCCN1C(=O)c2cc(-c3ccc(OC)c(OC)c3)nn2CC1(C)C(=O)NC1CCCCC1 (stereo not given)	0.937	4.65	8.36	1.2	0.352
C=C(C(=O)O)C1CCC2(C)CCC(O)C(C)(O)C2C1 (stereo not given)	-1.72	-3.11	3.8	-14.8	-11.9
CO[C@@H]1[C@]2(O)C(=O)N3/C=C\C(C)(C)c4[nH]c5ccccc5c4/C=C\3C(=O)N2[C@]23[C@H](CO)C(C)(C)N2c2ccccc2[C@]13O	-1.28	5.86	5.62	-7.97	-1.61
COC1CCC12CCN(Cc1ccc(C)o1)CC2 (stereo not given)	-5.26	-5.15	-3.31	-4.32	-4.67
